Measurements as given in PubChem BioAssay AID1345083 (National Center for Advancing Translational Sciences (NCATS), 2018).
Screen size: about 94,000 compounds; about 6,200 (6.6%) were called active. Inconclusive results, whose numbers are uncertain, are shown with a selection of clear calls. Calls follow the shape of the dose curve; as a rule, active = well fitted inhibition curve with a large enough effect; inconclusive = small, poorly fitted or top-dose-only effect; inactive = flat fitted curve, though single readings scatter. Potencies beside an inconclusive call are fits to weak or partial responses and may not hold up.
Potency is read from the fitted curve at half-maximal effect; tags tell the direction and shape of the fitted curve.

Assay: Cytotoxic Profiling in HEK 293 Cell Line of Diverse Libraries Using Quantitative High-Throughput Screening; also: nearly all actives have a fitted effect of over 60% in size
Settings: HEK 293 viability, ATP luminescence (CellTiter-Glo), 48-72 h; series mostly up to 115 µM
Procedure, shortened: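 Viability of HEK 293 cells, plated at 250 cells/well, was judged by cellular ATP after compound treatment for 48 or 72 hr. Luminescence was imaged 10 min after CellTiter-Glo addition at room temperature.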
With `O=C(C1CCN(Cc2ccccc2-c2cccnc2)CC1)N1CCN(Cc2ccccc2)CC1` the Potency was inconclusive: 50.1 µM [inhibitor, partial curve, poor fit]. For `COc1cccc(Nc2ccc(CN3CCC(C)(NC(C)=O)C3)cc2)c1` (stereo unspecified), the Potency was inconclusive: 100 µM [inhibitor, partial curve]. In the case of `FC(F)(F)c1ccc(N2C3CCC2CN(Cc2ccccc2)C3)cc1`, the Potency was inconclusive: 56.2 µM [inhibitor, partial curve, poor fit]. With `COc1ccccc1CN1Cc2cc(NC(=O)c3ccc(Cl)cc3)ccc2OC(C)C1=O` (stereo unspecified) the Potency was active: 25.1 µM. With `Cc1ccc([S+](=O)([O-])N2CCCC(C(=O)N3CCC(N4CCOCC4=O)CC3)C2)cc1` (stereo unspecified) the Potency was “inactive”. With `CNC(=O)CC1CCOC2(CCN(C(=O)Nc3ccc4c(c3)OCCO4)CC2)C1` (stereo unspecified) the Potency was “inactive”. In the case of `OCc1ccc(CN2C[C@H](O)C[C@H]2c2nc(-c3ccc(OC(F)(F)F)cc3)no2)o1`, the Potency was inconclusive: 100 µM [inhibitor, partial curve, poor fit]. In the case of `O=C(c1cc(CN2CCOCC2)on1)N1CCc2c(nc3cc(-c4ccccc4)[nH]n3c2=O)C1`, the Potency was “inactive”. In the case of `O=C1CCN(C[C@@H](O)COCc2ccccc2)c2ccsc2CN1Cc1ccccc1`, the Potency was inconclusive: 50.1 µM [inhibitor, partial curve, poor fit]. For `O=C(C1CCCN1C(=O)Nc1ccccc1)N1CCC(N2Cc3cccn3C2=O)CC1` (stereo unspecified), the Potency was “inactive”. With `CCC1Oc2ccc(NC(=O)COc3ccccc3)cc2CN(Cc2ccccc2Cl)C1=O` (stereo unspecified) the Potency was inconclusive: 50.1 µM [inhibitor, partial curve, poor fit]. With `O=C(NCc1ccccc1F)c1ccc2c(c1)CN(CC1=Cc3ccccc3OC1)CCO2` the Potency was inconclusive: 31.6 µM [inhibitor, full curve]. With `Cc1ccc(C(=O)N[C@@H]2CN(Cc3ccncc3)C[C@H]2CN(C)C)cc1C` the Potency was active: 25.1 µM. For `COc1ccc(NC(=O)Cn2c(N3CCCCC3)nc(C)c(C)c2=O)cc1`, the Potency was inconclusive: 79.4 µM [inhibitor, single point]. In the case of `O=C1COc2ccc(OCc3cncs3)nc2CN1CCOc1ccccc1`, the Potency was inconclusive: 79.4 µM [inhibitor, partial curve, poor fit]. With `CN(C)CCOCC1(C)COc2ccc(C(=O)Nc3ccc4[nH]ccc4c3)cc2N1` (stereo unspecified) the Potency was inconclusive: 126 µM [inhibitor, single point]. With `O=C(c1ccccc1F)N1CCN(C(=O)c2nnn3c2COC(c2ccccc2)C3)CC1` (stereo unspecified) the Potency was inconclusive: 44.7 µM [inhibitor, partial curve, poor fit]. For `CN(Cc1nc(-c2ccccc2)cs1)C(=O)COc1ccc(F)cc1F`, the Potency was inconclusive: 56.2 µM [inhibitor, partial curve, poor fit]. With `COC(=O)c1ccc2nc(C[C@@H]3C[C@@H](C(C)C)[C@H](CNCc4ccc(NC(C)=O)cc4)C=C3C)[nH]c2c1` the Potency was inconclusive: 31.6 µM [inhibitor, full curve, poor fit]. With `CNC(=O)CCn1ncc2cc(OCc3ccccc3-c3ccccc3F)ccc21` the Potency was active: 100 µM. For `O=C(CCc1ccccc1)N1CCC2(CC1)CC(N(Cc1ccccc1)C1CC1)CCO2` (stereo unspecified), the Potency was inconclusive: 79.4 µM [inhibitor, partial curve, poor fit]. In the case of `Cc1cc(C(=O)N2CCC3(CCCN(C(C)C)C3=O)C2)c(-c2ccccc2)o1` (stereo unspecified), the Potency was inconclusive: 89.1 µM [inhibitor, partial curve, poor fit]. With `Cc1noc2c(-c3cccc(CO)c3)cc(-c3cccs3)nc12` the Potency was active: 100 µM. With `Cc1ccc(CN2C(=O)[C@@H]3C[C@@H](O)CN3C3(CN(Cc4cccc(F)c4)C3)C2=O)o1` the Potency was “inactive”. In the case of `O=C(NC1CCNCC1)c1cc(C2CC2)nc2onc(C3CCNC3)c12` (stereo unspecified), the Potency was “inactive”. With `Cc1nocc1C(=O)N1C[C@@H](COc2ccccc2)[C@H](C(N)=O)C1` the Potency was “inactive”. In the case of `CCOc1ccccc1C(=O)NCc1nnc2cc(-c3nc(C)no3)ccn12`, the Potency was inconclusive: 79.4 µM [inhibitor, partial curve, poor fit]. In the case of `O=[S+]1([O-])NC2(CCN(Cc3ccccc3)CC2)CNc2ccccc21`, the Potency was “inactive”. With `O=C1CCC(CCC(=O)N2CCCC2c2ccc(F)cc2)(Cc2cccc3ccccc23)N1` (stereo unspecified) the Potency was “inactive”. In the case of `CCc1[nH]c2c(CNC(=O)C(C)O)cc(C)cc2c1C` (stereo unspecified), the Potency was “inactive”. With `O=C(CC[C@@H]1CNC(=O)[C@@H]2C[C@H](NC(=O)Nc3ccsc3)CN12)NCc1ccccc1` the Potency was inconclusive: 39.8 µM [inhibitor, single point]. For `O=C([C@H]1C[C@H](Oc2ccccc2)CN1C(=O)C1CCC1)N1CCOCC1`, the Potency was “inactive”. For `C[S+](=O)([O-])NCCNC(=O)c1ccc(-c2cccc(C(F)(F)F)c2)cc1`, the Potency was inconclusive: 50.1 µM [inhibitor, partial curve, poor fit]. In the case of `O=C(CCC1CCCC1)N1CCC2(CC1)CC(O)CCO2` (stereo unspecified), the Potency was “inactive”. For `COc1ccc2nc(C[C@@H]3C[C@@H](C(C)C)[C@H](CNC(=O)CC4(CC(=O)O)CCCC4)C=C3C)[nH]c2c1`, the Potency was “inactive”. In the case of `Cc1ccc(NC(=O)N2CCC3(CCNC(=O)CC3)CC2)cc1F`, the Potency was “inactive”. With `O=C(NCc1nnc2n1C(C(=O)NCCc1ccc(Cl)cc1)CC2)c1ccc(Cl)cc1Cl` (stereo unspecified) the Potency was “inactive”. With `COc1ccc([C@H](C)NC(=O)c2c(C)noc2-c2ccccc2C)cc1` the Potency was inconclusive: 39.8 µM [inhibitor, partial curve, poor fit]. In the case of `Cc1ccccc1C(=O)N1CCC(c2nn(C)c(=O)[nH]2)CC1`, the Potency was “inactive”. With `O=C(Nc1ccc2c(c1)OCCO2)N1CCC(Cc2nc(-c3ccncc3)n[nH]2)CC1` the Potency was “inactive”. For `CCNC(=O)C1C(c2cccc(NC(=O)c3ccccc3)c2)OC(=O)N1Cc1ccccc1` (stereo unspecified), the Potency was inconclusive: 89.1 µM [inhibitor, single point]. For `O=C(N[C@H]1CO[C@H]2[C@@H]1OC[C@@H]2Nc1nccc(C2CCCC2)n1)c1ccco1`, the Potency was inconclusive: 89.1 µM [inhibitor, partial curve, poor fit]. With `COc1ccc(CN2CC(O)CN([S+](=O)([O-])c3ccc(C)cc3)CC2=O)cc1` (stereo unspecified) the Potency was “inactive”. In the case of `COCCn1c(C)cnc1CC1CCCN(C(=O)C2(c3ccc(OC)cc3)CC2)C1` (stereo unspecified), the Potency was “inactive”. With `CC[C@H]1CN(C(=O)Nc2cccc(C(F)(F)F)c2)CC[C@H]1CC(=O)N(C)CC#N` the Potency was inconclusive: 112 µM [inhibitor, partial curve]. In the case of `Cc1cccc(-n2nc(C)c(CCC(=O)N3CCSCC3)c2Oc2ccc(F)cc2F)c1`, the Potency was inconclusive: 56.2 µM [inhibitor, partial curve, poor fit]. With `O=C1NC2(CCCN(Cc3ccc(F)cc3)C2)Oc2ccccc21` (stereo unspecified) the Potency was inconclusive: 112 µM [inhibitor, partial curve]. In the case of `Cc1cccc2c1O[C@H]1[C@H](CO)CN(C(=O)CC(C)(C)C)[C@@H]21`, the Potency was inconclusive: 79.4 µM [inhibitor, partial curve, poor fit]. With `O=C(Nc1ccc(-c2nnc3n2CCCC3)cc1)c1ccc(Cl)cc1` the Potency was “inactive”. With `Cc1cccc(C(=O)N2CCCN(c3cc(-c4ccc(Cl)cc4)[nH]n3)CC2)c1` the Potency was inconclusive: 50.1 µM [inhibitor, partial curve, poor fit]. With `O=S(=O)(c1cccs1)N1CCN(c2ccnc3ccnn23)CC1` the Potency was inconclusive: 56.2 µM [inhibitor, full curve, poor fit]. With `Fc1ccc(N2CCN(c3nc(-c4ccccc4F)no3)CC2)cc1` the Potency was “inactive”. For `Cc1nn(-c2ccccc2)c(Oc2ccccc2F)c1CCC(=O)NCC1CC1`, the Potency was inconclusive: 50.1 µM [inhibitor, partial curve, poor fit]. In the case of `Clc1ccccc1C1Cn2nnc(-c3noc(COc4ccccc4)n3)c2CO1` (stereo unspecified), the Potency was inconclusive: 70.8 µM [inhibitor, single point]. In the case of `COc1ccc(Cn2c(=O)c(C(=O)N3CCN(C(=O)c4ccccc4F)CC3)nc3cccnc32)cc1`, the Potency was “inactive”. In the case of `Cc1cccc(S(=O)(=O)N2CCc3c(C(=O)NCCN4CCCCC4)cccc32)c1`, the Potency was inconclusive: 44.7 µM [inhibitor, partial curve, poor fit]. In the case of `O=C1NC2(CCN(Cc3cncs3)C2)Oc2ccccc21` (stereo unspecified), the Potency was “inactive”. For `O=C(C1CCOCC1)N1CCCC(CCc2ccccc2C(F)(F)F)C1` (stereo unspecified), the Potency was inconclusive: 50.1 µM [inhibitor, partial curve, poor fit]. In the case of `CCC(c1cccs1)N1C(=O)[C@H]2CN(CCC(C)C)C[C@H]2C1=O` (stereo partly specified), the Potency was inconclusive: 100 µM [inhibitor, single point]. For `CC(C)n1cc(C(=O)NCc2cccnc2Oc2ccc(F)cc2F)cn1`, the Potency was inconclusive: 31.6 µM [inhibitor, partial curve, poor fit]. In the case of `Cc1noc(-c2ccc(C(C)(C)C)cc2)c1C(=O)NCc1cccc(Cl)c1`, the Potency was inconclusive: 50.1 µM [inhibitor, partial curve, poor fit]. In the case of `Cc1ccc(N2CC(c3noc(-c4cnccn4)n3)CC2=O)cc1` (stereo unspecified), the Potency was “inactive”. In the case of `Cc1ccc(C(=O)N2CCC(n3cc(-c4nc(-c5ccccc5)no4)nn3)C2)s1` (stereo unspecified), the Potency was inconclusive: 25.1 µM [inhibitor, full curve, poor fit]. With `O=C(Nc1ccc(Cl)cc1)N1CCC(c2nn(-c3ccc(F)cc3)c(=O)[nH]2)CC1` the Potency was inconclusive: 89.1 µM [inhibitor, single point]. With `COc1ccc(C(=O)N2CC(N3C(=O)c4c(c(C)nn4-c4ccccc4)C3C(C)C)C2)cc1` (stereo unspecified) the Potency was “inactive”. With `O=C(c1ccncc1)N1CCC2(CC1)CC(N(Cc1ccc(F)cc1)C1CC1)CCO2` (stereo unspecified) the Potency was inconclusive: 50.1 µM [inhibitor, partial curve, poor fit].
